# In publication PMC13083723 (Patterns, 2026):
# The campaign covered roughly 5,400 compounds. About 190 (3.5%) showed an effect of 50% or more. This is one part of the list. Starred links: 1 amine or outer side, 2 acyl side, 3 side chain; linkers in the order of their positions; H or OH if unused. Non-standard residues stand in square brackets, D forms with d. Residues, ends and D or L forms follow the SMILES beside them. Groups on a side chain read outwards from the residue. *: point of attachment. Ethylenediamine = C(CN[*:2])N[*:1]; Hyp = O=C(O)[C@@H]1C[C@@H](O)CN1; Phg = N[C@H](C(=O)O)c1ccccc1; CO = O=C([*:1])[*:2]; Bn = c1ccc(C*)cc1
# System: Vero-E6
# Assay: primary screen, phospholipidosis by LipidTOX staining; higher = more effect of the substance
# Conditions: 10 µM
# Outline: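 Single-concentration screen at 10 μM, with DMSO 0.1 v/v % and amiodarone 10 μM as controls. Read-out is LipidTOX Red phospholipid staining, which tolerates aldehyde fixation, in Vero-E6 cells.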
row,SMILES,result_ITMP [%]
1,CCCCC(=O)O[C@H]1CC[C@H]2[C@@H]3CCc4cc(O)ccc4[C@H]3CC[C@]12C,-1.47
2,O=C(OC[C@H]1O[C@@H](OC(=O)c2cc(O)c(O)c(OC(=O)c3cc(O)c(O)c(O)c3)c2)[C@H](OC(=O)c2cc(O)c(O)c(OC(=O)c3cc(O)c(O)c(O)c3)c2)[C@@H](OC(=O)c2cc(O)c(O)c(OC(=O)c3cc(O)c(O)c(O)c3)c2)[C@@H]1OC(=O)c1cc(O)c(O)c(OC(=O)c2cc(O)c(O)c(O)c2)c1)c1cc(O)c(O)c(OC(=O)c2cc(O)c(O)c(O)c2)c1,-8.08
3,N=C(N)c1ccc(OCCCCCOc2ccc(C(=N)N)cc2)cc1,1.76
4,O=c1[nH]ccc2cc(OC3CCNCC3)ccc12,-2.35
5,Cn1c(NCCN(CCO)CCCc2ccc([N+](=O)[O-])cc2)cc(=O)n(C)c1=O,2.68
6,N=C(N)SCCc1ccc(OCc2ccc([N+](=O)[O-])cc2)cc1,70
7,Cc1[nH]c2ccccc2c1CCNC(=O)c1cccs1,2.62
8,O=c1cc(-c2cccc3c2Sc2ccccc2S3)oc(N2CCOCC2)c1,-4.96
9,c1ccc(CNCc2ccc(CN3CCCNCCNCCCNCC3)cc2)nc1,-2
10,C[C@H](c1ccc2ccc(O[C@H]3CC[C@@H](C(F)(F)F)CC3)c(C(F)(F)F)c2c1)N1C2CCC1CC(C(=O)O)C2 (stereo partly shown),-0.12
11,CCOC(=O)c1c(/C(C#N)=C\N)c2ccc(Cl)c(Cl)c2n1C,-1.98
12,Fc1ccc(C(c2ccc(F)cc2)N2CCN(C/C=C/c3ccccc3)CC2)cc1,5.83
13,Oc1ccc([C@H]2COc3cc(O)ccc3C2)cc1,-8.37
14,CN1CCc2c(c3ccccc3n2Cc2ccccc2)C1,37.2
15,Cc1ccc(Nc2c(F)cccc2Cl)c(CC(=O)O)c1,-3.27
16,O=C(O)c1cc(O)c2c(c1)C(=O)c1cccc(O)c1C2=O,-2.48
17,CCc1ccc(C2=CC(C)(C)Sc3ccc(C#Cc4ccc(C(=O)O)cc4)cc32)cc1,-2.18
18,CCC[C@@H]1CC(=O)N([C@@H](CC)C(N)=O)C1,-1.91
19,Cc1ccc(C(=O)c2ccc(CC(=O)[O-])n2C)cc1,-3.18
20,CC1(C)CC(Oc2ccc(-c3ccc(-c4cn[nH]c4)cc3O)nn2)CC(C)(C)N1,3.38

row,SMILES,result_ITMP [%]
1,Cc1cc(/C=C/C#N)cc(C)c1Nc1ccnc(Nc2ccc(C#N)cc2)n1,19.1
2,Oc1c(Cl)cc(Cl)c(Cl)c1Cc1c(O)c(Cl)cc(Cl)c1Cl,-0.2
3,Cc1c(N(C)C)c(=O)n(-c2ccccc2)n1C,-4.65
4,C[C@]12CC[C@H](O)C[C@H]1CC[C@@H]1[C@@H]2CC[C@]2(C)[C@@H](c3ccc(=O)oc3)C[C@H]3O[C@]132,-2.23
5,CCOc1cc2ncc(C#N)c(Nc3ccc(F)c(Cl)c3)c2cc1NC(=O)/C=C/CN(C)C,73.9
6,CC(C)c1nc(N(C)S(C)(=O)=O)nc(-c2ccc(F)cc2)c1/C=C/[C@@H](O)C[C@@H](O)CC(=O)[O-],-8.19
7,Cc1oc(=O)oc1COC(=O)C1=C([C@H]2CCCO2)S[C@@H]2[C@@H]([C@@H](C)O)C(=O)N12,-2.76
8,CCCc1c(-c2ccc(O)cc2)nn(-c2ccc(O)cc2)c1-c1ccc(O)cc1,-0.95
9,C[C@]12CC[C@@H](O)C[C@@H]1CC[C@@H]1[C@@H]2CC[C@]2(C)C(c3ccccc3)=CC[C@@H]12,-2.07
10,NC(=O)c1ccc2[nH]ccc2c1,-9.05
11,Brc1ccc(NC2C3CC4CC(C3)CC2C4)cc1 (stereo not shown),-2.12
12,CN(N=O)C(=O)N[C@@H]1[C@@H](O)[C@H](O)[C@@H](CO)O[C@@H]1O,1.67
13,CC(C)(C)Nc1nc(Nc2ccc(C(N)=O)cc2)cc(N)c1C#N,0.58
14,COc1ccc(C2=NC(c3ccc(Cl)cc3)C(c3ccc(Cl)cc3)N2C(=O)N2CCNC(=O)C2)c(OC(C)C)c1 (stereo not shown),20.5
15,COc1ccc(-n2nc(C(F)(F)F)cc2-c2ccc(Cl)cc2)cc1,-1.15
16,Nc1ccncc1,-3.01
17,CC(=O)OCC(=O)[C@@]1(O)[C@H](C)CC2C3CCC4=CC(=O)C=C[C@]4(C)[C@@]3(F)[C@@H](O)C[C@@]21C (stereo partly shown),-3.79
18,NCCCC[C@@H]1NC(=O)[C@@H](Cc2c[nH]c3ccccc23)NC(=O)[C@H](c2ccccc2)NC(=O)[C@@H]2C[C@@H](OC(=O)NCCN)CN2C(=O)[C@H](Cc2ccccc2)NC(=O)[C@H](Cc2ccc(OCc3ccccc3)cc2)NC1=O (cyclo([Hyp]([CO-Ethylenediamine])[Phg][dW]KY(Bn)F)),8.97
19,COc1ccc(/C=C/C(=O)Nc2ccccc2C(=O)O)cc1OC,-9.61
20,CCN(CC)CCNC(=O)c1c(C)[nH]c(/C=C2\C(=O)Nc3ccc(F)cc32)c1C,6.17
